Measured values as given in PubChem BioAssay (NCI).
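Five compound concentrations were applied to cells in 96-well plates for 48 hours; endpoints were derived by simple linear interpolation of the resulting dose-response curve. The concentration for 50% growth inhibition is given as GI50. TGI denotes the concentration required for complete inhibition of growth.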

tested on: NCI-H322M lung; assay: NCI-60 cell line screen, 48 h

Structure (SMILES) | GI50 | TGI
Cc1ccc(/C=C2/SC(Nc3nc(-c4csc(NC5=NC(=O)/C(=C\c6ccc(C)cc6)S5)n4)cs3)=NC2=O)cc1 | 8.94 µM | 32.3 µM
Cn1nc2ccc3nccc(N4CCN(CCO)CC4)c3c2n1 | – | > 100 µM
Cc1cc(S(N)(=O)=O)c(S/C(CC(C)C)=N\Nc2ccc([N+](=O)[O-])cc2)cc1Cl | 3.84 µM | 15.5 µM
C[S+](C)CCOC(=O)C(=[N+]=[N-])c1ccc([N+](=O)[O-])cc1 | – | > 100 µM
CCOC(=O)C12CCC(=O)C=C1[C@@H](C)C(=O)CC2 (some centres undefined) | – | > 100 µM
N#Cc1c(Cl)cccc1Oc1ccc(S(=O)(=O)/N=C(\NN)Nc2ccc(Cl)cc2)cc1 | – | > 100 µM
C=CC(=O)N1CCN(c2nc(=O)n(-c3c(C)ccnc3C(C)C)c3nc(-c4c(O)cccc4F)c(F)cc23)[C@@H](C)C1 | > 64.4 µM | > 100 µM
Nc1c2c(=O)[nH]c(=O)c2c(N)c2c(=O)c3ccccc3c(=O)c12 | – | 2.75 µM
COc1cc(CNc2ccc3nc4n(c(=O)c3c2)CCCCC4)cc(OC)c1OC | – | > 100 µM
O=c1c2ccccc2n(C[C@H]2CO2)c2ccccc12 | 2.2 µM | 5.85 µM
